Each structure is given as a SMILES string. The whole screen tested about 39,000 compounds, of which about 220 (0.56%) showed activity. This is one part of the list.
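Note: static incubation at 37 °C against the wild-type strain, values averaged over two biological replicates.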

The test relates to Escherichia coli K-12 BW25113. Nature of the test: relative growth (OD600 normalised to plate interquartile mean) (fraction); higher = less growth inhibition, active = 0.2 or less. The settings on record: 50 µM; LB; incubation time: overnight (16-24 h).
For the compound `COCC(=O)N1C[C@@H](C)[C@@H](OC)CN(C)C(=O)c2ccc(NC(=O)c3ccc(OC)cc3)cc2OC[C@H]1C`, the relative growth is inactive: 0.986. The value for `Cc1ccc(S(=O)(=O)N(C)C[C@H]2OCCCC[C@H](C)Oc3ccc(NC(=O)Nc4c(C)noc4C)cc3C(=O)N([C@@H](C)CO)C[C@@H]2C)cc1` was inactive: 0.959; that for `O=C(Cc1ccccn1)NCC[C@@H]1CC[C@@H](NC(=O)CN2CCOCC2)[C@H](CO)O1` was inactive: 1; that for `C[C@@H]1CCCCO[C@@H](CN(C)C(=O)Nc2ccc(C(F)(F)F)cc2)[C@@H](C)CN([C@H](C)CO)C(=O)c2cc(NC(=O)Cc3ccccc3)ccc2O1` was inactive: 1. The value for `CC(=O)N(C)C[C@H]1Oc2ncc(C#C[C@@H](C)O)cc2C(=O)N([C@H](C)CO)C[C@H]1C` was inactive: 0.998. As for `C[C@@H]1CCCCO[C@H](CN(C)C(=O)C2CCCCC2)[C@H](C)CN([C@H](C)CO)C(=O)c2cc(NC(=O)Cc3ccccc3)ccc2O1`, the relative growth is inactive: 1.04. On to `CC(C)NC(=O)N[C@@H]1C=C[C@@H](CC(=O)NCCCN(C)C)O[C@@H]1CO`, for which the relative growth was inactive: 1.06. Turning to `C[C@H]1CN([C@@H](C)CO)C(=O)c2cc(NC(=O)CCCN(C)C)ccc2O[C@H]1CN(C)S(=O)(=O)c1cccs1`, the relative growth was inactive: 1. As to `C[C@@H]1CCCCO[C@H](CN(C)C(=O)Nc2ccc(F)cc2)[C@H](C)CN([C@@H](C)CO)C(=O)c2cc(NC(=O)Nc3ccc(C(F)(F)F)cc3)ccc2O1`, the relative growth was inactive: 1. Turning to `C[C@@H]1CCCCO[C@@H](CN(C)C(=O)CCC(F)(F)F)[C@H](C)CN([C@@H](C)CO)C(=O)c2cc(NC(=O)C3CCCCC3)ccc2O1`, the relative growth is inactive: 0.98. As for `C[C@H](CO)N1C[C@H](C)[C@H](CN(C)C)Oc2ccc(NS(C)(=O)=O)cc2CC1=O`, the relative growth is inactive: 0.967.

On to `COc1ccc2c3c([nH]c2c1)[C@@H](CO)N(C[C@]13CCN(CC1)Cc1ccc(cc1)F)C(=O)Nc1ccc(cc1)F`, for which the relative growth is inactive: 1.01. The value for `CCO[C@@H]1OC(C(=O)N2CCN(Cc3ccc4c(c3)OCO4)CC2)=C[C@H](c2ccc(Br)cc2)[C@H]1CCCOC(=O)NCCCCCC(=O)NO` was inactive: 0.96; that for `C[C@@H]1CN([C@H](C)CO)C(=O)Cc2cc(NC(=O)Nc3ccc(C(F)(F)F)cc3)ccc2O[C@@H]1CN(C)Cc1ccc(C(=O)O)cc1` was inactive: 0.971; that for `Cc1ccc(S(=O)(=O)N(C)C[C@@H]2Oc3c(NC(=O)Nc4ccc(C(F)(F)F)cc4)cccc3C(=O)N([C@@H](C)CO)C[C@@H]2C)cc1` was inactive: 0.825. For `C[C@H]1CCCCO[C@@H](CN(C)Cc2ccc(C(F)(F)F)cc2)[C@@H](C)CN([C@@H](C)CO)C(=O)c2cc(NC(=O)CCC(F)(F)F)ccc2O1` the value was inactive: 0.998.

These data come from the supplement of paper PMC9446081.
